Laboratory results published in PubChem BioAssay AID485297 (National Center for Advancing Translational Sciences (NCATS), 2010).
Out of some 320,000 compounds screened, about 9,100 (2.8%) were called active. Inconclusive means that the source gave no clear call. Such entries were picked first, then a sample of the others. Calls follow the shape of the dose curve; as a rule, active = well fitted activation curve with a large enough effect; inconclusive = small, poorly fitted or top-dose-only effect; inactive = no such curve, though single readings can be large or run the other way. No potency is given beside an inconclusive call; the fits are too rough.

experiment: qHTS Assay for Rab9 Promoter Activators; details: Huh7 Rab9 promoter-luciferase reporter, luminescence, 24 h; series mostly up to 9.22 µM; also: nearly all actives have a fitted effect of over 60% in size
Procedure, shortened: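 Luminescence read-out: Huh7 cells stably expressing Rab9-luciferase, treated 24 h with compound at 37 °C, then lysed with luciferase reagent for 10 min at ambient before reading.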
Potency is read from the fitted curve at half-maximal effect; tags tell the direction and shape of the fitted curve.

Row | Structure (SMILES) | Potency
1 | COc1ccc2cc(C(=O)N3CCN(C)CC3)[nH]c2c1 | inconclusive [activator, partial curve]
2 | Cc1ccc2c(CN3CCN(S(=O)(=O)/C=C/c4ccccc4)CC3)cc(=O)oc2c1 | inactive
3 | O=C(N/N=C/c1ccc([N+](=O)[O-])cc1)c1c[nH]c2ccccc12 | inconclusive [activator, partial curve]
4 | NCC(O)CN1CCN(Cc2ccccc2)CC1 (stereo not drawn) | inactive
5 | Cc1ccc(C(=O)Nc2ccccc2[N+](=O)[O-])cc1S(=O)(=O)N1CCOCC1 | inactive
6 | Cc1cc(C)c2c(n1)sc1c(=O)n(CC(=O)c3ccccc3)cnc12 | inconclusive [activator, partial curve]
7 | COc1cc([N+](=O)[O-])ccc1NC(=S)NNC(=O)c1ccc2c(c1)OCO2 | inactive
8 | CCOC(=O)C1CC(c2ccccc2)=NNC1=O (stereo not drawn) | inconclusive [activator, single point]
9 | O=c1c(O)c(-c2ccc3c(c2)OCO3)oc2ccccc12 | inconclusive [activator, single point]
10 | COc1cccc(C(=O)NCCS(=O)(=O)NCCc2ccccc2)c1 | inconclusive [activator, single point]
11 | Cc1nc2cc(NC(=O)c3ccc(Cl)cc3)ccc2n1C | active: 0.282 µM
12 | Cc1ccc(NC(=O)Cc2nc(CSc3nnc(-c4ccc5c(c4)OCO5)o3)cs2)cc1 | inconclusive [activator, partial curve]
13 | CC1CC(C)CN(C(=O)CNS(=O)(=O)c2cccs2)C1 (stereo not drawn) | inactive
14 | CCc1ccc(C(=O)COC(=O)c2cccnc2Cl)cc1 | inactive
15 | CCCCC1C2C(=O)N(c3ccc(C)cc3)C(=O)C2ON1c1ccccc1 (stereo not drawn) | inconclusive [activator, single point]
16 | CC1CN(C(=O)c2ccc(CNS(=O)(=O)c3cccc(Cl)c3)cc2)CC(C)O1 (stereo not drawn) | inactive
17 | CC(=O)c1cc2c(cc1NC(=O)CSc1nc3ccccc3o1)OCO2 | inconclusive [activator, single point]
18 | CCC(=O)Nc1cc2[nH]c(=O)cc(C)c2cc1C | inactive
19 | O=C(CN1C(=O)S/C(=C\C=C\c2ccccc2)C1=O)Nc1cccc(O)c1 | inconclusive [activator, single point]
20 | Nc1nc(-c2cccc(Br)c2)cs1 | inconclusive [activator, single point]
21 | COc1ccc(NC(=O)c2ccco2)c(OC)c1 | inconclusive [activator, single point]
22 | Oc1nc(Nc2ccccc2)sc1/C=C1\C=Nc2ccccc21 | active: 2.82 µM
23 | CCCC(=O)c1ccc(N2CCCCC2)c(F)c1 | inconclusive [activator, single point]
24 | O=C1CCS/C(=N\N=C\c2ccc(Cl)cc2Cl)N1 | inconclusive [activator, partial curve]
25 | CCCc1ccc(OCc2nc(-c3ccc(NC(=O)c4cccs4)cc3)no2)cc1 | inconclusive [activator, partial curve]
26 | Cc1ccc(C(=O)c2c3ccccc3[n+]([O-])n2CCO)cc1 | inactive

Row | Structure (SMILES) | Potency
27 | COc1cc(/C=C(\C#N)c2nc3c(s2)CCCC3)ccc1O | inconclusive [activator, single point]
28 | Cc1ccc(OCC(=O)Nc2cccc(C)n2)c(C)c1 | inconclusive [activator, single point]
29 | CN(C)CCN(C(=O)c1ccc(N2C(=O)CCC2=O)cc1)c1nc2cc3c(cc2s1)OCCO3 | inactive
30 | O=C(N/N=C/c1c(F)cccc1Cl)c1cc(C2CC2)[nH]n1 | inconclusive [activator, partial curve]
31 | COc1ccccc1NC(=O)c1ccccc1Oc1ccccc1 | inconclusive [activator, partial curve]
32 | COc1ccc2c(Cl)c(C(=O)N/N=C3\CCCC(=O)C3)sc2c1 | inconclusive [activator, single point]
33 | O=C(NCCc1ccccc1)C(=O)Nc1ccc([N+](=O)[O-])cc1 | inactive
34 | O=C(CSc1nnc(-c2ccco2)o1)c1ccccc1 | inconclusive [activator, single point]
35 | CC(=O)NC(Cc1ccccc1)C(=O)NC1CCN(C(=O)NCc2ccccc2)CC1 (stereo not drawn) | inconclusive [activator, single point]
36 | COc1ccc(C(=O)Nc2ccc(N3CCCC3)cc2)cc1 | inconclusive [activator, partial curve]
37 | CCOC(=O)c1cnc2c(cnn2C)c1NCCCn1ccnc1 | inactive
38 | CCN=C1NN=C(c2ccc(C)cc2)CS1 | inconclusive [activator, partial curve]
39 | COc1ccc(C(=O)O)cc1F | inconclusive [activator, single point]
40 | COc1cc(-c2cc(=O)c3c(O)c(OC)c(OC)cc3o2)cc(OC)c1O | inactive
41 | O=C1c2ccccc2C(Nc2ccc(-c3nc4ccccc4[nH]3)cc2)N1Cc1ccco1 (stereo not drawn) | inconclusive [activator, single point]
42 | Clc1ccc(-c2nnc(-c3cccc4ccccc34)o2)cc1Cl | inconclusive [activator, single point]
43 | Cc1c(Cl)cccc1NC(=O)c1cc(-c2ccccc2O)n[nH]1 | inconclusive [activator, partial curve]
44 | CCc1ccc(S(=O)(=O)Nc2cccc(C3OCCCO3)c2)cc1 | inactive
45 | COc1ccc(NC(=O)c2ccc(Br)o2)cc1 | inconclusive [activator, partial curve]
46 | O=C(O)c1cnn(-c2nc(-c3ccc(Cl)cc3)cs2)c1C(F)(F)F | inconclusive [activator, single point]
47 | O=C1NC(=O)/C(=C\c2ccc(OCc3cccc(C(=O)O)c3)c(Cl)c2)N1 | active: 2.24 µM
48 | C/C(=C\c1ccccc1)C(=O)Nc1cc(C)on1 | inconclusive [activator, single point]
49 | O=C(CCc1nnc(Cc2cccc(C(F)(F)F)c2)o1)NCCc1ccccc1F | inconclusive [activator, partial curve]
50 | Cn1c(=O)c2ncn(CC(=O)Nc3cccc(-c4nc5ccccc5s4)c3)c2n(C)c1=O | inconclusive [activator, single point]
51 | COc1ccc2cc3cc(C(=O)NC4CC4)sc3nc2c1 | active: 0.316 µM
52 | Cc1sc2nc(-c3ccco3)oc(=O)c2c1C | inactive

Row | Structure (SMILES) | Potency
53 | Cc1ccc(C(=O)Nc2nccs2)cc1 | active: 2.24 µM
54 | CCCc1cc(=O)[nH]c2nnc(SCC(=O)Nc3ccc(NC(C)=O)cc3)n12 | inactive
55 | O=C(Nc1ccccc1)C(Cl)C(=O)c1ccccc1 (stereo not drawn) | inconclusive [activator, partial curve]
56 | CSc1ccc(Cl)c(C(=O)N2CCOc3ccccc32)c1 | inactive
57 | Cc1ccc2c(C)c(C(=O)Nc3cccnc3)oc2c1 | inconclusive [activator, single point]
58 | CCNC(=S)N/N=C/c1cc(C)n(-c2ccc(Cl)cc2)c1C | inconclusive [activator, partial curve]
59 | Clc1cccc(-c2nnc(-c3ccccc3)o2)c1 | active: 0.891 µM
60 | Cc1n[nH]c(=O)n1-c1ccc(OCc2ccccc2)cc1 | active: 2.82 µM
61 | O=[N+]([O-])c1ccc2nc(N3CCCC3)sc2c1 | active: 3.55 µM
62 | CC(C)c1ccc(NC(=O)c2snc3ccc(Cl)cc23)cc1 | active: 2.24 µM
63 | CC(C)OC(=O)c1cccc(-c2ccc(C=O)o2)c1 | inactive
64 | O=C(Nc1ccc(F)cc1)NC1CCCCCCC1 | inconclusive [activator, partial curve]
65 | c1ccc(-c2csc(N3CCN(c4ccccn4)CC3)n2)cc1 | inconclusive [activator, partial curve, poor fit]
66 | COCCCNC(=S)N/N=C/c1ccccc1O | inconclusive [activator, single point]
67 | O=C(c1ccc(F)cc1)c1ccc(N2CCCC2)cc1 | inconclusive [activator, partial curve]
68 | COc1ccc(Br)cc1C1N2CC3(C)CN1CC(C)(C2)C3=O (stereo not drawn) | inactive
69 | CC1CCN(C(=O)CCNC(=O)c2ccccc2)CC1 | inconclusive [activator, single point]
70 | COc1cccc(OCc2cc(C(=O)N3CCNC(=O)C3Cc3ccccc3)no2)c1 (stereo not drawn) | inactive
71 | Cc1ccc2[nH]c(=O)c(CN(Cc3ccco3)C(=O)c3ccncc3)cc2c1 | inactive
72 | Cc1cc(C(=O)COC(=O)c2cc(Cl)ccc2N)c(C)n1Cc1ccco1 | active: 2.51 µM
73 | O=C(c1cnn2c(C(F)F)cc(-c3ccccc3)nc12)N1CCN(Cc2ccc3c(c2)OCO3)CC1 | inactive
74 | COc1ccc(OCC(=O)Nc2cccc(-c3nc4ccccc4o3)c2)cc1 | inconclusive [activator, single point]
75 | COC(=O)c1cc(CSc2nc3ccccc3[nH]2)oc1C | inconclusive [activator, partial curve]
76 | Cc1ccn(-c2cc(O)c(-n3ccc(C)n3)cc2O)n1 | inconclusive [activator, single point]
77 | Cc1ccc(C(=O)Cn2cnc3ccccc3c2=O)cc1 | active: 2.51 µM
78 | O=C(O)c1ccc(N/N=C/c2ccncc2)cc1 | inconclusive [activator, partial curve]
